# “And” between values parts separate entries of the source, which are not always exact repeats. Identical values can stand only once. Hit rate of the full screen: of about 140,000 compounds, about 240 (0.17%) were called active. The shares of active, inactive and inconclusive entries below differ from those in the screen. Calls come from the whole dose curve; as a rule, active = well fitted inhibition curve with a large enough effect; inconclusive = small, poorly fitted or top-dose-only effect; inactive = no such curve, though single readings can be large or run the other way. A potency beside an inconclusive call is a rough fit, not a confirmed value.
# Assay: Primary qHTS assay for inhibitors of alpha-synuclein gene (SNCA) expression; note: nearly all actives have a fitted effect of over 45% in size
# Details: HEK-293 SNCA-luciferase knock-in, luminescence, 24 h; series mostly up to 57.2 µM
# Potency is the fitted concentration of half-maximal effect; tags give direction and shape of the fitted curve.
row,SMILES,Potency
1,CCCNC(=O)NCC1(COc2ccc(S(C)(=O)=O)cc2)C[C@@H](O)[C@@H](O)C1 (stereo not given in full),"inconclusive: 12.6 µM [inhibitor, single point]"
2,COc1ccc(S(=O)(=O)c2c(SC)nn(CC(=O)Nc3ccc(C)c(Cl)c3)c2N)cc1,"inconclusive: 35.5 µM [inhibitor, partial curve, poor fit]"
3,O=C(NC1CCN(c2ccnc3ccnn23)C1)c1ccc(F)cc1 (stereo not given),inactive
4,Cc1ccc(-c2cn[nH]c2C2CCCN(C(=O)c3[nH]ncc3Cl)C2)cc1 (stereo not given),"inconclusive: 31.6 µM [inhibitor, single point]"
5,NC(=O)C1CCN([C@H]2[C@@H]3OC[C@@H](O3)[C@@H](NCc3ccc4c(c3)OCO4)[C@@H]2O)CC1,"inconclusive: 28.2 µM [inhibitor, single point]"
6,COc1ccc(C2(C(=O)N3CCC4(CC3)C(OC)C(=O)N4c3cccc(F)c3)CC2)cc1 (stereo not given),inactive
7,O=C(NCc1ccc(F)cc1)c1ccc2c(c1)N(Cc1c(F)cccc1Cl)C(=O)CS2,"inconclusive: 31.6 µM [inhibitor, single point]"
8,O=C(NCCc1ccc(Cl)cc1)c1ccc2nnc(-c3ccc(Cl)cc3)n2c1,"inconclusive: 3.98 µM [inhibitor, full curve, poor fit]"
9,Cc1cc(F)ccc1-c1[nH]nc2ncc(-c3cnn(C)c3)nc12,"inconclusive: 12.6 µM [inhibitor, full curve, poor fit]"
10,CCN(CC1CCOCC1)C(=O)c1cccnc1SC/C=C/c1ccccc1,inactive
11,Cc1ccc(CNS(=O)(=O)c2cc(C(=O)Nc3ccc(C(C)C)cc3)ccc2F)cc1,"inconclusive: 39.8 µM [inhibitor, single point]"
12,Cc1nn(-c2ccc(C(F)(F)F)cc2)c(C)c1[C@@H]1C=C[C@@H](NS(=O)(=O)c2ccccc2)C1,inactive
13,COc1ccc(Cl)cc1-c1ccc2c(c1)C(=O)N1C[C@@H](NS(=O)(=O)c3ccc(F)cc3)C[C@H]1C(=O)N2,"inconclusive: 22.4 µM [inhibitor, partial curve]"
14,O=C(Cc1ccccc1F)N1CCOc2ccc(CN3CCc4ccccc4C3)cc2C1,inactive
15,O=C(CN1CCOCC1)N1CCC(N2C(=O)C3(CCCCC3)C2c2ccccc2)CC1 (stereo not given),"inconclusive: 39.8 µM [inhibitor, single point]"
16,Cc1ccc(Cl)cc1-n1nc(-c2c(C)nc3scc(CC(=O)NCCC(C)C)n3c2=O)cc1C,inactive
17,CCCNC(=O)Cc1csc2nc(C)c(-c3cc(C)n(-c4cc(Cl)ccc4C)n3)c(=O)n12,inactive
18,CC(C)CCN1CCOc2cc(C(=O)NCc3cccs3)ccc2C1,"inconclusive: 11.2 µM [inhibitor, single point]"
19,CCCn1nccc1C(=O)N1CCCC(CCc2cccc(C(F)(F)F)c2)C1 (stereo not given),"inconclusive: 39.8 µM [inhibitor, single point]"
20,CCOC(=O)c1[nH]c2ccccc2c1NC(=O)c1cc(OC)cc(OC)c1,inactive
21,O=C(NCCC1CCCCC1)c1ccc2nccn2c1,inactive
22,Cc1ccc(S(=O)(=O)c2cnc(SCC(=O)Nc3ccccc3C(F)(F)F)[nH]c2=O)cc1C,"inconclusive: 35.5 µM [inhibitor, partial curve, poor fit]"

row,SMILES,Potency
1,CCn1ncc(C(=O)N[C@@H]2CN(c3ncccn3)C[C@H]2CN(C)C)c1C,inactive
2,O=C1CO[C@H]2CCN(Cc3ccccc3Cl)CC[C@@H]2N1c1ccccc1,inactive
3,CCC(CC)C(=O)NC[C@@H]1C=C(C)[C@H](Cc2nc3ccc(C)cc3[nH]2)C[C@H]1C(C)C,"inconclusive: 25.1 µM [inhibitor, partial curve, poor fit]"
4,Cc1ccccc1CC(=O)N1CCC2(CCC(=O)N(Cc3ccccc3)C2)CC1,inactive
5,CCN(CC)CCNC(=O)CN1C(=O)c2cccnc2Oc2ccc(C)cc21,"inconclusive: 22.4 µM [inhibitor, single point]"
6,CCN(C(=O)c1sc2cc(OC)ccc2c1Cl)c1ccccc1,"inconclusive: 25.1 µM [inhibitor, partial curve, poor fit]"
7,c1cc(-c2cnn3cc(-c4ccc(OCCN5CCCCC5)cc4)cnc23)ccn1,"inconclusive: 1.92 µM [inhibitor, partial curve, poor fit]"
8,CC(=O)c1cnc2ccc(-c3cc(Cl)c(O)c(Cl)c3)nc2c1NC1CCC(CN(C)C)CC1 (stereo not given),active: 0.027 µM
9,COc1ccccc1Cn1c(=O)c(C(=O)N2CCN(C(=O)c3ccc(F)cc3)CC2)nc2cccnc21,inactive
10,O=C(NC1CCCN(c2cc(-c3ccc(F)cc3)[nH]n2)C1)c1ccc2nc[nH]c2c1 (stereo not given),"inconclusive: 39.8 µM [inhibitor, single point]"
11,O=C(Cn1cnnn1)NCc1ccc(-c2cnc3c(Oc4ccccc4)nccn23)cc1,inactive
12,CN(C)c1nc(Cc2ccc(NC(=O)c3ccc4ccccc4c3)cc2)nc(Cl)c1CC(=O)O,"inconclusive: 2.71 µM [inhibitor, partial curve, poor fit]"
13,O=C(c1cc(-c2cccc(C(F)(F)F)c2)c2nncn2n1)N1CCCC1,inactive
14,O=C(c1cn[nH]c1-c1ccc(F)cc1)N1CC2CC(C1)[C@H]1CCCC(=O)N1C2 (stereo not given in full),inactive
15,CC(=O)Nc1ccc(-c2ccc(=O)n3c2[C@@H]2C[C@@H](CN(S(=O)(=O)c4ccccc4)C2)C3)cc1,inactive
16,O=C(NCc1ccc(F)cc1)c1cc(-c2cccc(C(F)(F)F)c2)c2cccn2n1,"inconclusive: 12.6 µM [inhibitor, partial curve, poor fit]"
17,COC[C@H]1C[C@H]2C[C@@H](O)[C@H](N(C)Cc3cccc(F)c3)[C@]2(O)CO1,inactive
18,COc1ccc(N2Cc3c(NCC(C)C)ncnc3N(C)CC2=O)cc1,"inconclusive: 11.2 µM [inhibitor, single point]"
19,O=C(NC1CCCC1)N1CCC2(C1)C(=O)N(CCc1ccccc1)c1ccccc12 (stereo not given),"inconclusive: 28.2 µM [inhibitor, single point]"
20,N#Cc1cccc(CN2CC[C@H](c3nc4ccccc4[nH]3)C2)c1,"inconclusive: 56.2 µM [inhibitor, single point]"
21,O=C(O)CCC1CCN(c2cc(NC3CC3)ncn2)CC1,active: 1.12 µM
22,O=C1COc2ccc(-c3cc(-c4ccc(Cl)cc4)c4c(n3)-c3ccccc3OC4)cc2N1,"inconclusive: 39.8 µM [inhibitor, single point]"

row,SMILES,Potency
1,CCOc1ccc(C(=O)NCc2nnnn2-c2ccc(C)c(C)c2)cc1OCC,inactive
2,Cc1nc2ncnn2c(C)c1CCC(=O)NCc1cc2n(n1)CCCNC2,"inconclusive: 31.6 µM [inhibitor, single point]"
3,Cc1ccc(S(=O)(=O)N2CCC(OC3CCN(Cc4ccccc4)CC3)CC2)cc1C,inactive
4,CN(C)c1cccc(C(=O)NC2CCCN(c3cc(-c4ccc(Cl)cc4)[nH]n3)C2)c1 (stereo not given),inactive
5,CCOc1ccc(-c2cc3c(=O)n(CCNC(=O)c4ccccc4OC)ccn3n2)cc1,"inconclusive: 39.8 µM [inhibitor, single point]"
6,Cc1nc2cc(C(=O)NCCC3=CCCCC3)ccc2n1-c1ccc(Br)cc1,"inconclusive: 12.6 µM [inhibitor, partial curve, poor fit]"
7,COc1ccc2c(c1)OCC(C(=O)NCCNc1cc(C)ccn1)C2 (stereo not given),inactive
8,O=C(Nc1cccc(Cl)c1)N1CCCCC1c1noc(COCC2CC2)n1 (stereo not given),inactive
9,COc1ccc(CNC(=O)Cn2c(C)cc3nc4n(c(=O)c32)CCCC4)cc1,"inconclusive: 17.8 µM [inhibitor, partial curve, poor fit]"
10,CN1CCN(c2cc(-c3ccc(F)cc3C(F)(F)F)nc(N)n2)CC1,"inconclusive: 10 µM [inhibitor, partial curve, poor fit]"
11,COc1cc(NC(=O)Cn2c(-c3cccc(Cl)c3)nc(C)c(CCO)c2=O)cc(OC)c1OC,"inconclusive: 22.4 µM [inhibitor, single point]"
12,O=C1Nc2ccccc2CC12CCN2Cc1ccsc1 (stereo not given),"inconclusive: 31.6 µM [inhibitor, partial curve, poor fit]"
13,COc1cc(-c2cc3c(nc2-c2ccccc2)nc(C(=O)NCCN(C)C)n3C)ccn1,inactive
14,CCc1ccc(NC(=O)Cn2c(-c3ccccc3)nc(C)c(CCO)c2=O)cc1,"inconclusive: 10 µM [inhibitor, partial curve, poor fit]"
15,CCc1ccc(CNC(=O)c2cc3c(N4CCCC4)nc(C)cn3n2)cc1,inactive
16,C[C@]1(CO)CN(c2cc(C(=O)Nc3ccc4c(c3)-c3c(c(C(N)=O)nn3-c3ccc(F)cc3)CC4)c(Cl)cn2)C[C@@]1(C)CO,"inconclusive: 19.2 µM [inhibitor, partial curve, poor fit]"
17,CNC(=O)c1cn2c(n1)CN(C(C)=O)CC2,"inconclusive: 14.1 µM [inhibitor, single point]"
18,O=C(c1ccc2oc(-c3ccnc(Cl)c3)nc2c1)N1CCOCC1,inactive
19,O=C(NC1CCN(Cc2cccc(-c3cccs3)c2)CC1)c1ccc(Cl)cc1,"inactive and inconclusive: 14.1 µM [inhibitor, partial curve, poor fit]"
20,COc1cccc(CNC(=O)C2CCN(c3cc(C(F)(F)F)ncn3)CC2)c1,"inconclusive: 22.4 µM [inhibitor, partial curve, poor fit]"
21,COc1ccc(NC(=O)Cn2c(=O)n(CCC(C)C)c(=O)c3cccnc32)cc1Cl,"inconclusive: 12.6 µM [inhibitor, single point]"

# Source: PubChem BioAssay AID1671194 (National Center for Advancing Translational Sciences (NCATS), 2021)
